Results published in the supplement of paper PMC6531468.
The list shows a part of the results. Read counts after selection give these values, which scatter widely. Each score is taken over the longer molecules that contain the sequence shown.

Tested on: IMP3 KH3-4
Assay: 6-mer SELEX enrichment z-score vs GST control; IMP3 is the RNA-binding protein IGF2BP3; higher = more enriched by binding
Details: construct: KH3-4 (377-579); SELEX round: R4
Experimental: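 SELEX-seq with GST-tagged IMP3 KH3-4 (Pro377-Lys579) and an N40 RNA pool, round 4. 6-mer z-score of sequence-tag enrichment normalised to the corresponding GST SELEX round; RNA k-mers written as DNA (T for U).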

Chain of IMP3 KH3-4 (chain, as listed by the source): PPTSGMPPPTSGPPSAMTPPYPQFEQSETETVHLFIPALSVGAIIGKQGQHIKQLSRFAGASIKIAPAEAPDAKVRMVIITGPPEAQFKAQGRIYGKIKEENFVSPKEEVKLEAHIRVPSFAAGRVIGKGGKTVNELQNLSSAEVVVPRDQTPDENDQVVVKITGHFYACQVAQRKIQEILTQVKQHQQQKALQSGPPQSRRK

Sequence	6-mer SELEX enrichment z-score
AAGTCG	0.579
GAGCTC	-0.435
AACTAC	0.339
AATACC	-1.25
CGGGGC	1.09
AGTGCA	0.253
GCCACG	-0.554
AAAACA	1.15
GTTACC	-0.782
CAACAC	-0.461
TGCCCC	-1.36
CAACAT	1.07
TTTCCA	0.547
ATGGTC	0.214
TCCTAT	0.49
TACACG	0.363
TATCTA	0.372
CGATAT	0.623
CAGACC	-1.57
GCGAGG	-0.125

Sequence	6-mer SELEX enrichment z-score
CAGGCG	0.075
TCATAA	1.44
TGTGAT	0.778
CGTCTC	-0.032
GTCGGG	0.527
GCGCAA	-0.372
GCTAGC	-0.394
AGTGTT	-0.148
GGGCCG	0.125
ATCAAT	1.49
GCACCG	-0.472
TGTGGG	0.605
TGTTAG	0.254
CTGGAT	0.326
TTCACA	1.21
AACCAT	0.127
CGGCGC	0.085
GTAGGC	0.096
CACAGC	-0.613
TAGCTC	-0.02
